The supplement of paper PMC6135742
Where “and” joins values, the source holds several entries; their conditions need not be identical. Equal entries are not always repeated. Structures can show the parent of a compound that is named as a salt. ± gives the standard deviation of the averaged measurements. In all, about 2,600 compounds were measured (“MBP+ mature oligodendrocyte number relative to DMSO vehicle control”: median about -0.34, highest 2% from about 13 on). The list shows a part of the results.

Tested on: jimpy (Plp1 jimpy) mouse iPSC-derived oligodendrocyte progenitor cells
Experiment: MBP+ mature oligodendrocyte number relative to DMSO vehicle control (SDs above negative control mean); higher = more surviving jimpy oligodendrocytes (rescue)
Conditions: 10 µM; 3 days
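Further: 10 µM single dose with 3-day oligodendrocyte differentiation.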

Compared with `CC(C)C[C@H](NC(=O)[C@@H](O)[C@H](N)Cc1ccccc1)C(=O)O` [Bestatin hydrochloride], `CC(C)C[C@H](NC(=O)CNC(=O)c1cc(Cl)ccc1Cl)B(O)O` is lower in “MBP+ mature oligodendrocyte number” value: -1.3 for the first, < -4.81 for the second.

First: O=C(O)CN(CCOCCOCCN(CC(=O)O)CC(=O)O)CC(=O)O
Second: CCCCCCN(CCCCCC)C(=O)Cc1c(-c2ccc(F)cc2)[nH]c2ccccc12 [N,N-Dihexyl-2-(4-fluorophenyl)indole-3-acetamide]
The “MBP+ mature oligodendrocyte number” value of the first is lower: -0.282 for the first, 6.15 for the second.

Compared with `C=CCc1ccc(O)c(-c2ccc(O)c(CC=C)c2)c1` [Honokiol], `C=CCc1cc(OC)c(O)c(C(=O)NCCO)c1` [Alibendol] is lower in “MBP+ mature oligodendrocyte number” value: 0.731 for the first, -2.09 for the second.

Compared with `CNC(=C[N+](=O)[O-])NCCSCc1ccc(CN(C)C)o1` [Ranitidine hydrochloride], `CCN(CC)CCNC(=O)c1ccc(NC(C)=O)cc1` [N-Acetylprocainamide hydrochloride] is higher in “MBP+ mature oligodendrocyte number” value: -0.354 for the first, 0.353 for the second.

Going from `CNC(=C[N+](=O)[O-])NCCSCc1ccc(CN(C)C)o1` [Ranitidine] to `COc1ccc2cccc(CCNC(C)=O)c2c1` [Agomelatine], the “MBP+ mature oligodendrocyte number” value falls from 3.04 to -0.795 ± 0.94.

First: COC(=O)c1ccc2c(c1)NC(=O)/C2=C(\Nc1ccc(N(C)C(=O)CN2CCN(C)CC2)cc1)c1ccccc1 [Nintedanib (BIBF 1120)]
Second: COC(=O)N1CCN(Cc2cccc(NC(=O)Nc3ccc(C)nc3)c2F)CC1
The “MBP+ mature oligodendrocyte number” value of the first is lower: -6.61 for the first, 2.49 for the second.

Compared with `O=C(O[C@@H]1Cc2c(O)cc(O)cc2O[C@@H]1c1cc(O)c(O)c(O)c1)c1cc(O)c(O)c(O)c1` [(-)-Epigallocatechin Gallate], `CC(=O)NNC(=O)N1Cc2ccccc2Oc2ccc(Cl)cc21` is higher in “MBP+ mature oligodendrocyte number” value: -0.668 for the first, -0.497 for the second.

First: N#C[C@@H]1CCCN1C(=O)CNC12CC3CC(CC(O)(C3)C1)C2 [Vildagliptin (LAF-237)]
Second: C#C[C@]1(O)CC[C@H]2[C@@H]3CCC4=CC(=O)CC[C@@H]4[C@H]3CC[C@@]21C [Norethindrone]
The “MBP+ mature oligodendrocyte number” value of the first is lower: 2.17 for the first, 6.57 for the second.

Compared with `[Cl-].[Li+]` [Lithium Chloride], `Nc1ccc(S(=O)(=O)Nc2ncccn2)cc1` [Sulfadiazine] is higher in “MBP+ mature oligodendrocyte number” value: 1.13 for the first, 3.13 for the second.

First: CCOc1ccn(-c2ccc(F)cc2)c(=O)c1C(=O)Nc1ccc(Oc2ccnc(N)c2Cl)c(F)c1
Second: O=c1ncn2nc(Sc3ccc(F)cc3F)ccc2c1-c1c(Cl)cccc1Cl
The “MBP+ mature oligodendrocyte number” value of the first is lower: 1.6 for the first, 3.08 for the second.

Compared with `CCn1cc(-c2ccnc3[nH]c(-c4cccc(CN(C)C)c4)cc23)c(-c2ccc(NC(=O)N(C)C)cc2)n1`, `NC1(c2ccc(-c3nc4ccn5c(=O)[nH]nc5c4cc3-c3ccccc3)cc2)CCC1` is lower in “MBP+ mature oligodendrocyte number” value: -5.93 for the first, -6.52 for the second.

Going from `N[C@@H]1CN(c2c(F)cc3c(=O)c(C(=O)O)cn([C@@H]4C[C@@H]4F)c3c2Cl)CC12CC2` [Sitafloxacin Hydrate] to `COc1cc2c(cc1O)CC[C@@H]1[C@@H]2CC[C@]2(C)[C@@H](O)CC[C@@H]12` [2-methoxyestradiol], the “MBP+ mature oligodendrocyte number” value falls from 1.74 to -1.15.

First: CNC[C@H](O)c1cccc(O)c1 [Phenylephrine hydrochloride]
Second: CC(C)Cc1ccc([C@H](C)C(=O)O)cc1 [S(+)-Ibuprofen]
The “MBP+ mature oligodendrocyte number” value of the first is lower: < -3.97 for the first, -0.363 for the second.

Going from `CNC[C@H](O)c1cccc(O)c1` [Phenylephrine HCl] to `CS(=O)(=O)c1ccc([C@@H](O)[C@@H](CO)NC(=O)C(Cl)Cl)cc1` [Thiamphenicol], the “MBP+ mature oligodendrocyte number” value rises from -0.948 to 2.41.

Compared with `CCN(CC)CCn1c(=O)c(Cc2ccc(OC)cc2)nc2ccccc21` [Caroverine hydrochloride], `CCN(CC)CCCC(C)Nc1c2ccc(Cl)cc2nc2ccc(OC)cc12` (stereo not given) [Quinacrine dihydrochloride] is lower in “MBP+ mature oligodendrocyte number” value: -0.211 for the first, < -3.85 for the second.

First: CO[C@H]1C[C@@H]2CC[C@@H](C)[C@@](O)(O2)C(=O)C(=O)N2CCCC[C@H]2C(=O)O[C@H]([C@H](C)C[C@@H]2CC[C@@H](O)[C@H](OC)C2)CC(=O)[C@H](C)/C=C(\C)[C@@H](O)[C@@H](OC)C(=O)[C@H](C)C[C@H](C)/C=C/C=C/C=C/1C [Rapamycin (Sirolimus)]
Second: C1=N/C2=N/c3ccc(OCCN4CCCC4)c(c3)COC/C=C/COCc3cccc(c3)C(=C1)N2 [Pacritinib (SB1518)]
The “MBP+ mature oligodendrocyte number” value of the first is lower: -5.74 for the first, -4.64 for the second.

Compared with `Nc1nc2ccc(Cl)cc2n2c(-c3ccccc3)nnc12`, `Clc1ccc2c(c1)N=C(N1CCNCC1)c1ccccc1N2` [N-Desmethylclozapine] is lower in “MBP+ mature oligodendrocyte number” value: 0.304 for the first, -4 for the second.

Going from `COc1cc2ncnc(Nc3ccc(Cl)cc3F)c2cc1OC` to `COc1ccc(CCN(C)CCc2ccc(OC)c(OC)c2)cc1OC` [YS-035 hydrochloride], the “MBP+ mature oligodendrocyte number” value rises from -2.75 to -0.0327.

Compared with `CNc1cc(NS(=O)(=O)c2ccc(N)cc2)nc(NC)n1` [Ro 04-6790 dihydrochloride], `CC(C)(C)NS(=O)(=O)c1cncc(-c2cc(F)c3nc(N)nn3c2)c1` is higher in “MBP+ mature oligodendrocyte number” value: 1.72 for the first, 4.04 for the second.

`Oc1ccc(Nc2nc(-c3ccc(Cl)cc3)cs2)cc1` and `CC(C)[C@H](C(=O)Nc1ccc(C(=O)NO)cc1)c1ccccc1` cannot be ordered by “MBP+ mature oligodendrocyte number” value: < -6.35 for the first, < -4.81 for the second.

First: Cc1ccc(C(=O)NCCCCCC(=O)Nc2ccccc2N)cc1
Second: O=C(O)Cc1ccccc1Nc1c(Cl)cccc1Cl [Diclofenac Potassium]
The “MBP+ mature oligodendrocyte number” value of the first is lower: -5.76 for the first, 1.69 for the second.

`N#Cc1ccc2[nH]c(O)c(-c3ccc(CN4CCOCC4)cn3)c2c1` and `Cc1cncc(CN2CCC(=C3c4ccc(Cl)cc4CCc4cccnc43)CC2)c1` [Rupatadine Fumarate] cannot be ordered by “MBP+ mature oligodendrocyte number” value: -6.1 for the first, < -6.01 for the second.

Compared with `CCN(CC)CCCC(C)Nc1c2ccc(Cl)cc2nc2ccc(OC)cc12` (stereo not given) [Quinacrine 2HCl], `CN(C)CCCN1c2ccccc2CCc2ccc(Cl)cc21` [Clomipramine HCl] is higher in “MBP+ mature oligodendrocyte number” value: -5.34 for the first, -4.64 for the second.

Compared with `O=C(O)P(=O)(O)O` [Foscarnet Sodium], `Nc1ccc(O)c(C(=O)O)c1` [Mesalamine] is lower in “MBP+ mature oligodendrocyte number” value: -1.56 for the first, -4.97 for the second.

Compared with `C#C[C@]1(O)CC[C@H]2[C@@H]3CCc4cc(OC)ccc4[C@H]3CC[C@@]21C` [Mestranol], `COc1cc2c(cc1O)CC[C@@H]1[C@@H]2CC[C@]2(C)[C@@H](O)CC[C@@H]12` [2-Methoxyestradiol (2-MeOE2)] is lower in “MBP+ mature oligodendrocyte number” value: 12.8 for the first, 1.16 for the second.

First: CC1=C(C)C(=O)C(CCCCC#CCCCC#CCO)=C(C)C1=O
Second: Cc1[nH]c(/C=C2\C(=O)Nc3ccccc32)c(C)c1CCC(=O)O [TSU-68 (SU6668, Orantinib)]
The “MBP+ mature oligodendrocyte number” value of the first is higher: 1.33 for the first, 0.371 for the second.

First: CN(C)C(=O)c1ccc(S(=O)(=O)c2ccc(NC(=O)[C@@](C)(O)C(F)(F)F)c(Cl)c2)cc1
Second: O=C(O)Cc1ccccc1Nc1c(Cl)cccc1Cl [Diclofenac Diethylamine]
The “MBP+ mature oligodendrocyte number” value of the first is higher: 19.5 for the first, 0.501 for the second.

First: COc1cc(C=O)ccc1O [Vanillin]
Second: COc1cc2c(CCNC(C)=O)c[nH]c2cc1O [6-Hydroxymelatonin]
The “MBP+ mature oligodendrocyte number” value of the first is higher: 4.47 for the first, 0.555 for the second.

`CN(CCOc1ccc(NS(C)(=O)=O)cc1)CCc1ccc(NS(C)(=O)=O)cc1` [Dofetilide] and `CC(C)NC[C@H](O)COc1ccc(CCOCC2CC2)cc1` [Levobetaxolol HCl] are within error of each other in “MBP+ mature oligodendrocyte number” value: 9.42 ± 4.5 for the first, 9.7 for the second.

Going from `CC(=O)N1CCN(c2ccc(OCC3COC(Cn4ccnc4)(c4ccc(Cl)cc4Cl)O3)cc2)CC1` (stereo not given) [Ketoconazole] to `COc1cc(N2CCN(C)CC2)ccc1Nc1nccc(-c2cn(C)c3cnccc23)n1`, the “MBP+ mature oligodendrocyte number” value falls from 9.85 ± 9 to -6.27.

First: COC(=O)C1=C(C)NC(C)=C(C(=O)OC)C1c1ccccc1[N+](=O)[O-] [Nifedipine]
Second: O=C(O)Cc1ccccc1Nc1c(Cl)cccc1Cl [Diclofenac sodium]
The “MBP+ mature oligodendrocyte number” value of the first is higher: 1.28 ± 1.1 for the first, -0.701 for the second.

First: CNC(=O)[C@H]1O[C@@H](n2cnc3c(NCc4ccc(N)cc4)ncnc32)[C@H](O)[C@@H]1O
Second: CNC(=O)c1ccc2cc([C@@]3(O)CCn4cncc43)ccc2c1 [TAK-700 (Orteronel)]
The “MBP+ mature oligodendrocyte number” value of the first is lower: -0.825 for the first, 0.371 for the second.

Going from `Clc1ccccc1CN1CCc2sccc2C1` [Ticlopidine HCl] to `O=C(O)Cc1ccccc1Nc1c(Cl)cccc1Cl` [Diclofenac Sodium], the “MBP+ mature oligodendrocyte number” value falls from 18.4 to -0.647.

Compared with `O=C1NC(=O)/C(=C\c2ccc3nccnc3c2)S1`, `O=C1NC(=O)/C(=C/c2ccc(-c3ccc(F)cc3O)o2)S1` is lower in “MBP+ mature oligodendrocyte number” value: -0.833 for the first, -3.65 ± 1.8 for the second.

First: CN(C)CCCN1c2ccccc2CCc2ccc(Cl)cc21 [Clomipramine hydrochloride]
Second: Cc1ccccc1/C=C/C1=NCCN1 [Metrazoline oxalate]
The “MBP+ mature oligodendrocyte number” value of the first is lower: -3.26 for the first, -0.755 for the second.

First: C#C[C@]1(OC(C)=O)CC[C@H]2[C@@H]3CCC4=C[C@@H](OC(C)=O)CC[C@@H]4[C@H]3CC[C@@]21C [Ethynodiol diacetate]
Second: C[C@]12C=CC(=O)C=C1CC[C@@H]1[C@@H]2[C@@H](O)C[C@@]2(C)[C@H]1CC[C@]2(O)C(=O)CO [Prednisolone]
The “MBP+ mature oligodendrocyte number” value of the first is lower: 6.45 for the first, 7.54 for the second.

First: CC[N+](CC)(CC)CC [Tetraethylammonium chloride]
Second: C[N+](C)(C)CCO.[Br-] [Choline bromide]
The “MBP+ mature oligodendrocyte number” value of the first is higher: 1.57 for the first, -0.983 for the second.

`NC(=O)c1noc([C@H](CCCC2CCCCC2)CC(=O)NO)n1` and `CC(=O)Oc1cc(C(F)(F)F)ccc1C(=O)O` [Triflusal] are within error of each other in “MBP+ mature oligodendrocyte number” value: -0.108 for the first, -0.242 ± 1.3 for the second.

First: CC(C)CCN1c2nc(Nc3cc(F)c(O)c(F)c3)ncc2N(C)C(=O)C1C (stereo not given)
Second: Cc1cnc(Nc2ccc(N3CCN(C)CC3)cc2)nc1Nc1cccc(S(=O)(=O)NC(C)(C)C)c1
The “MBP+ mature oligodendrocyte number” value of the first is lower: < -6.01 for the first, -5.93 for the second.

First: OC[C@@H](O)[C@@H](O)CO [Erythritol]
Second: N=c1ccn2c(n1)O[C@H]1[C@H](O)[C@@H](CO)O[C@H]12 [Cyclocytidine HCl]
The “MBP+ mature oligodendrocyte number” value of the first is higher: -0.0158 for the first, -1.01 for the second.

First: N=c1ccn2c(n1)O[C@H]1[C@H](O)[C@@H](CO)O[C@H]12 [Ancitabine hydrochloride]
Second: O=c1[nH]cc(F)c(=O)[nH]1 [Fluorouracil (5-Fluoracil, 5-FU)]
The “MBP+ mature oligodendrocyte number” value of the first is higher: -1.69 for the first, < -6.7 for the second.

First: CCCCCCCC/C=C\CCCCCCCC(=O)NCc1ccc(O)c(OC)c1 [Olvanil]
Second: O=c1[nH]cc(F)c(=O)[nH]1 [5-Fluorouracil]
The “MBP+ mature oligodendrocyte number” value of the first is higher: -3.62 for the first, < -4.47 for the second.

With `Cc1cccc(-c2[nH]c(C(C)(C)C)nc2-c2ccc3nccnc3c2)n1` the “MBP+ mature oligodendrocyte number” value was -3.91 and -3.66.
